For 30 compounds, activity change, negative = inhibition results are on record in PubChem BioAssay AID1745853 (National Center for Advancing Translational Sciences (NCATS), 2022).

The list shows a part of the results. The main result of the screen is listed elsewhere. These columns were measured beside it and carry no call.

Common to all, as to assay: Primary Screen for Target Class Profiling of Small Molecule Inhibitors of Methyltransferases
The target of assay [1] is Glycine N-methyltransferase (Homo sapiens) (UniProt Q14749). The following applies: purified enzyme, MTase-Glo SAH luminescence; measured here: GNMT inhibition; at 40 µM; stronger effect = lower value. In outline:
(§1)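 Each enzyme was reacted with SAM and its substrate, with compounds tested once at 40 uM; SAH formed was read by MTase-Glo luminescence.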

Assay [2] addresses Guanidinoacetate N-methyltransferase (Homo sapiens) (UniProt Q14353). As to conditions: purified enzyme, MTase-Glo SAH luminescence; measured here: GAMT inhibition; at 40 µM; stronger effect = lower value. In outline:
as §1

For assay [3], the target named is Histamine N-methyltransferase (Homo sapiens) (UniProt P50135). As to conditions: purified enzyme, MTase-Glo SAH luminescence; measured here: HNMT inhibition; at 40 µM; stronger effect = lower value. Summed up: as §1
For assay [4], the target named is Nicotinamide N-methyltransferase (Homo sapiens) (UniProt P40261). The following applies: purified enzyme, MTase-Glo SAH luminescence; measured here: NNMT inhibition; at 40 µM; stronger effect = lower value. Summed up: as §1
The target of assay [5] is Phenylethanolamine N-methyltransferase (Homo sapiens) (UniProt P11086). As to conditions: purified enzyme, MTase-Glo SAH luminescence; measured here: PNMT inhibition; at 40 µM; stronger effect = lower value. Summed up: as §1
% is set by controls: 0 for no effect and ±100 for the full control effect.

`C/C=C1\[C@H](OC2OC(COC3OC(CO)C(O)C(O)C3O)C(O)C(O)C2O)OC=C(C(=O)OC)[C@H]1CC(=O)OCCc1ccc(O)cc1` (stereo partly drawn): the activity change, negative = inhibition was -2.29% in assay [1]; -3.03% in assay [2]; 5.31% in assay [3]; -11.5% in assay [4]; -3.54% in assay [5].
In the case of `CC(C)CCn1c(=O)c2ccc(C(=O)NC(C)C)cc2n2c(=O)n(Cc3ccc(F)cc3)nc12`, the activity change, negative = inhibition is -1.19% in assay [1]; -9.73% in assay [2]; 8.04% in assay [3]; -16.8% in assay [4]; -5.81% in assay [5].
`C=C1C(=O)O[C@@H]2C=C(COC(C)=O)CC/C=C(\CO)CC[C@@H]12`: the activity change, negative = inhibition in assay [1] was 0%; in assay [2] it was 3.16%; in assay [3] it was 3.56%; in assay [4], -7.03%; in assay [5], 5.81%.
On to `CCCCCNc1nc2c(-c3ccccc3)nnn2c2ccccc12`, for which the activity change, negative = inhibition in assay [1] is -6.3%; in assay [2], 3.58%; in assay [3] it was -5.05%; in assay [4], -8.47%; in assay [5], -9.41%.
The corresponding values for `Cn1nc(-c2nc(C3CCOC3)no2)cc1-c1ccccc1` (stereo not drawn) are -0.721%, 2.24%, 2.69%, -4.11% and -15.5%.
For the compound `O=C(c1cc(O)c(O)c([N+](=O)[O-])c1)c1ccccc1F`, the activity change, negative = inhibition in assay [1] was -70.2%; in assay [2], 6.39%; in assay [3], 8.26%; in assay [4], -8.6%; in assay [5], -15.9%.
For the compound `Cc1cc(C)c(NC(=O)Cn2c(=O)c3ccc(Cl)cc3n3nncc23)c(C)c1`, the activity change, negative = inhibition in assay [1] is -8.1%; in assay [2], 2.34%; in assay [3], -6.53%; in assay [4] it was -9.34%; in assay [5], -10.6%.
On to `Cc1ccc(N2C(=O)c3cc4occc4n3CC2(C)C(=O)NC2CCCC(C)C2C)cc1` (stereo not drawn), for which the activity change, negative = inhibition is -8.06% in assay [1]; 1.15% in assay [2]; -3.06% in assay [3]; -0.664% in assay [4]; -5.84% in assay [5].
For the compound `CCOC(=O)c1ccc(N(C)c2csc(-c3ccccc3)n2)cc1`, the activity change, negative = inhibition in assay [1] is 2.67%; in assay [2], -7.65%; in assay [3] it was 12.4%; in assay [4], -23.5%; in assay [5] it was -2.43%.
On to `COc1cc2nc(N3CCN(C(=O)C4COc5ccccc5O4)CC3)nc(N)c2cc1OC` (stereo not drawn), for which the activity change, negative = inhibition in assay [1] was -30.6%; in assay [2], 2.73%; in assay [3] it was -7.29%; in assay [4], -17.8%; in assay [5], -5.3%.
Regarding `Cc1cc(Cn2cc3c4c(cccc42)[C@H](CC(C)C)N[C@H](C(=O)NC2CCCC2)C3)no1`, the activity change, negative = inhibition in assay [1] was -5.02%; in assay [2], 0.937%; in assay [3], 0.246%; in assay [4] it was 3.86%; in assay [5], 0.92%.
Turning to `CCCn1c(=O)c2ccc(C(=O)NC(C)C)cc2n2c(SCC(=O)c3ccc(C)cc3C)nnc12`, the activity change, negative = inhibition in assay [1] was 0.375%; in assay [2], -1.97%; in assay [3], -0.46%; in assay [4] it was -4.57%; in assay [5], -5.87%.
The corresponding values for `O=C(NCCc1ccccc1)c1ccc2c(=O)nc3c(-c4ccc(Cl)cc4)n[nH]n3c2c1` are -5.06%, 1.96%, -2.56%, 5.48% and 1.78%.
`CCc1cccc(N2C(=O)c3cc(C(=O)OC)nn3CC2(C)C(=O)NC2CCC(C)CC2)c1` (stereo not drawn): the activity change, negative = inhibition was -1.58% in assay [1]; 4.71% in assay [2]; 0.587% in assay [3]; 0.502% in assay [4]; -1.5% in assay [5].
With `NC(=O)[C@@H](Cc1ccccc1)NC(=O)[C@@H]1C[C@@H](NS(=O)(=O)c2cccs2)CCN1C(=O)CSCC(=O)O`, the activity change, negative = inhibition was 0.45% in assay [1]; 2.9% in assay [2]; 2.3% in assay [3]; 0.817% in assay [4]; 2.6% in assay [5].
The corresponding values for `O=S(=O)(c1ccccc1)c1nnn2c1nc(NCCc1ccccc1)c1cc(Cl)ccc12` are -2.14%, 1.81%, 2.47%, 5.78% and -0.726%.
With `Cc1ccccc1CN1C(=O)c2ccc(-c3ccco3)n2CC1(C)C(=O)NC1CCCCC1` (stereo not drawn), the activity change, negative = inhibition was -4.79% in assay [1]; 1.88% in assay [2]; 5.99% in assay [3]; -2.03% in assay [4]; -0.357% in assay [5].
In the same order, the values of `COCc1nnc2n1CCC(NC(=O)C1(c3ccc(OC)cc3)CC1)CC2` (stereo not drawn) are 6.93%, 2.38%, 2.05%, -4.89% and 16.3%.
For the compound `NC[C@@](O)(c1ccc(Cl)cc1)c1ccc(-c2cn[nH]c2)cc1`, the activity change, negative = inhibition is -0.748% in assay [1]; 0.126% in assay [2]; -86.3% in assay [3]; -13.2% in assay [4]; -6.86% in assay [5].
For `Cc1ccc(CN2C(=O)c3cc4sccc4n3CC2(C)C(=O)NC2CCCC(C)C2C)cc1` (stereo not drawn), the activity change, negative = inhibition in assay [1] is -1.59%; in assay [2], 4.86%; in assay [3] it was 2.95%; in assay [4], 3.32%; in assay [5] it was -1.3%.
For the compound `O=c1c2ccccc2n2c(-c3ccc(Br)cc3)nnc2n1CCc1ccccc1`, the activity change, negative = inhibition is 2.37% in assay [1]; 0.613% in assay [2]; 3.97% in assay [3]; 7.53% in assay [4]; -1.99% in assay [5].
Consider `CCOc1ccc(CN2C(=O)c3cc4oc(C)cc4n3CC2(C)C(=O)NC2CCCCC2)cc1` (stereo not drawn), for which the activity change, negative = inhibition is 3.01% in assay [1]; 1.67% in assay [2]; 6.45% in assay [3]; 5.85% in assay [4]; 2.8% in assay [5].
Turning to `O=C(Cn1nc2n(Cc3ccccc3)c(=O)c3ccccc3n2c1=O)NCc1ccccc1`, the activity change, negative = inhibition in assay [1] is -4.89%; in assay [2], 0%; in assay [3], 0.59%; in assay [4], -2.24%; in assay [5] it was 1.03%.
For `COc1cc(/C=C/c2ccccc2)c(C(=O)O)c(O)c1CC=C(C)C`, the activity change, negative = inhibition was -6.99% in assay [1]; 0.376% in assay [2]; 7.91% in assay [3]; -17.2% in assay [4]; -4.44% in assay [5].
Take `Cc1ccccc1Cn1nc2n(CC(C)C)c(=O)c3ccc(C(=O)NC4CCCC4)cc3n2c1=O`: the activity change, negative = inhibition in assay [1] worked out at 4.51%; in assay [2], 0.56%; in assay [3], 9.66%; in assay [4] it was 2.6%; in assay [5], 5.95%.
Turning to `CC(C)C1CN(C(=O)CNC(=O)N(C)C)CCCN1Cc1ccc(F)cc1` (stereo not drawn), the activity change, negative = inhibition in assay [1] was -3.49%; in assay [2] it was -4.05%; in assay [3], 0.217%; in assay [4], -14.2%; in assay [5], 3.61%.
In the case of `CCOC(=O)c1cc2n(n1)CC(C)(C(=O)NCc1ccc(F)cc1)N(Cc1ccccc1F)C2=O` (stereo not drawn), the activity change, negative = inhibition in assay [1] worked out at 5.6%; in assay [2], 0%; in assay [3], 10.4%; in assay [4], 9.25%; in assay [5], 6.26%.
With `COc1cc(OC)c2ccc(=O)oc2c1`, the values for the activity change, negative = inhibition in assay [2], in assay [4] and in assay [5] were -0.326%, -13.7% and 5.69%, respectively.
Take `CCOCCCN1C(=O)c2cc3c(OC)ccc(OC)c3n2CC1(C)C(=O)NC1CCCCC1` (stereo not drawn): the activity change, negative = inhibition in assay [1] was -14.5%; in assay [2], 4.84%; in assay [3] it was 4.51%; in assay [4] it was 9.62%; in assay [5], -33.1%.
`CC(C)Cn1c(=O)c2ccc(C(=O)NC3CCCC3)cc2n2c(=O)n(Cc3ccccc3F)nc12`: the activity change, negative = inhibition in assay [1] turned out to be 4.94%; in assay [2], 3.3%; in assay [3] it was 7.81%; in assay [4], 3.9%; in assay [5] it was 5.66%.
